The IC50 comes from the fitted curve, where viability falls to half of the control; a limit (>, <) means that the fit lies beyond the doses tested. AUC sums up the same curve from the lowest dose to the 256-fold higher top dose; it is 1 without any effect and falls as sensitivity rises. For part of these data: Any top dose called inferred is not printed in the source and was worked back from the curve model. For part of these data: Drugs with an entry number were screened twice under separate entries, and the two screens often disagree.
Key:
Test in all cases: Viability of human cancer cell lines after 72 h of drug (GDSC screen)
OSI-930 = compound: O=C(Nc1ccc(OC(F)(F)F)cc1)c1sccc1NCc1ccnc2ccccc12 [OSI-930]; settings: top dose 10.24 µM
Procedure: (§1)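 Human cancer cell lines in 384-well plates, medium with 10% serum, drug for 72 h over a 256-fold dose range (nine 2-fold or five 4-fold steps up to the top dose). Adherent lines were fixed and stained with the nucleic acid dye Syto60, suspension lines read with resazurin; signal relative to control wells, capped at 0 and 100%. One two-parameter sigmoid per drug and line, fitted in a mixed model over all curves with the slope shared within a line.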

HG-5-88-01 = compound: COc1cc(N2CCC(C(N)=O)CC2)ccc1Nc1nc(N)c(Cl)c(Nc2ccccc2S(=O)(=O)C(C)C)n1 [HG-5-88-01]; settings: top dose 10 µM; top dose inferred
Procedure: as §1

LAQ824 = compound: O=C(/C=C/c1ccc(CN(CCO)CCc2c[nH]c3ccccc23)cc1)NO [LAQ824]; settings: top dose 1.024 µM; top dose inferred
Procedure: as §1

NSC-87877 = compound: O=S(=O)(O)c1ccc2cc(N=Nc3cc(S(=O)(=O)O)c4cccnc4c3O)ccc2c1 [NSC-87877]; settings: top dose 16 µM; top dose inferred
Procedure: as §1

Masitinib = compound: Cc1ccc(NC(=O)c2ccc(CN3CCN(C)CC3)cc2)cc1Nc1nc(-c2cccnc2)cs1 [Masitinib]; settings: top dose 20 µM
Procedure: as §1

BX-912 = compound: O=C(Nc1cccc(Nc2ncc(Br)c(NCCc3cnc[nH]3)n2)c1)N1CCCC1 [BX-912]; settings: top dose 10.24 µM; top dose inferred
Procedure: as §1

Tamoxifen = compound: CC/C(=C(\c1ccccc1)c1ccc(OCCN(C)C)cc1)c1ccccc1 [Tamoxifen]; settings: top dose 5 µM
Procedure: as §1

VNLG/124 = compound: CCCC(=O)OCc1ccc(OC(=O)/C=C(C)/C=C/C=C(C)/C=C/C2=C(C)CCCC2(C)C)cc1 [VNLG/124]; settings: top dose 5.12 µM; top dose inferred
Procedure: as §1

Bleomycin = compound: Cc1c(N)nc([C@H](CC(N)=O)NC[C@H](N)C(N)=O)nc1C(=O)N[C@H](C(=O)N[C@H](C)[C@@H](O)[C@H](C)C(=O)N[C@H](C(=O)NCCc1nc(-c2nc(C(=O)NCCC[S+](C)C)cs2)cs1)[C@@H](C)O)[C@@H](OC1OC(CO)C(O)C(O)C1OC1OC(CO)C(O)C(OC(N)=O)C1O)c1cnc[nH]1 [Bleomycin]
Procedure: as §1

Elesclomol = compound: CN(NC(=O)CC(=O)NN(C)C(=S)c1ccccc1)C(=S)c1ccccc1 [Elesclomol]; settings: top dose 0.2 µM; top dose inferred
Procedure: as §1

[1] = top dose 50 µM, screen: GDSC drug entry 1378, top dose inferred
[2] = top dose 64 µM, screen: GDSC drug entry 190

Cell Line	AUC (OSI-930)	IC50 (OSI-930) [µM]	AUC (HG-5-88-01)	IC50 (HG-5-88-01) [µM]	AUC (LAQ824)	IC50 (LAQ824) [µM]	AUC (NSC-87877)	IC50 (NSC-87877) [µM]	AUC (Masitinib)	IC50 (Masitinib) [µM]	AUC (BX-912)	IC50 (BX-912) [µM]	AUC (Tamoxifen)	IC50 (Tamoxifen) [µM]	AUC (VNLG/124)	IC50 (VNLG/124) [µM]	AUC (Bleomycin; [1])	IC50 (Bleomycin; [1]) [µM]	AUC (Bleomycin; [2])	IC50 (Bleomycin; [2]) [µM]	AUC (Elesclomol)	IC50 (Elesclomol) [µM]
A673 (rhabdomyosarcoma, adherent)	0.963	> 10.2	0.87	7.7	0.499	0.0635	0.959	> 16	0.979	> 20	0.822	5.2	0.986	> 5	0.984	> 5.12	0.547	4.14	0.663	10.8	–	–
COLO-829 (melanoma, adherent)	0.969	> 10.2	0.967	> 10	0.716	0.354	0.978	> 16	0.919	> 20	0.979	> 10.2	0.965	> 5	0.979	> 5.12	0.869	> 50	0.75	30.4	–	–
ES3 (Ewing sarcoma, adherent)	0.944	> 10.2	0.754	3.52	0.545	0.0856	0.944	> 16	0.873	> 20	0.641	1.6	0.975	> 5	0.985	> 5.12	0.412	1.77	0.334	1.35	–	–
GP5d (large intestine, adherent)	0.951	> 10.2	0.934	> 10	0.437	0.0439	0.991	> 16	0.86	14	0.918	> 10.2	0.99	> 5	0.985	> 5.12	0.877	41.2	0.642	9.42	–	–
H2591 (mesothelioma, adherent)	0.982	> 10.2	0.963	> 10	0.503	0.0652	0.98	> 16	0.915	> 20	0.927	> 10.2	0.98	> 5	0.943	> 5.12	0.548	4.39	0.493	3.8	–	–
H2803 (mesothelioma, adherent)	0.97	> 10.2	0.949	> 10	0.61	0.135	0.983	> 16	0.952	> 20	0.955	> 10.2	0.983	> 5	0.982	> 5.12	0.69	11.7	0.368	1.63	–	–
H2810 (mesothelioma, adherent)	–	–	0.891	> 10	–	–	–	–	–	–	–	–	0.984	> 5	–	–	0.84	39.5	–	–	–	–
KYSE-140 (oesophagus, adherent)	0.967	> 10.2	0.946	> 10	0.411	0.0353	0.923	> 16	0.887	> 20	0.886	> 10.2	–	–	0.983	> 5.12	0.646	8.38	0.52	4.56	0.504	0.0128
LP-1 (myeloma, suspension)	0.881	7.61	0.929	> 10	0.446	0.0467	0.979	> 16	0.802	7.95	0.938	> 10.2	–	–	0.945	> 5.12	0.992	> 50	0.973	> 64	0.981	> 0.2
MDA-MB-175-VII (breast, adherent)	0.954	> 10.2	0.986	> 10	0.646	0.17	0.924	> 16	0.879	> 20	0.973	> 10.2	–	–	0.979	> 5.12	0.964	> 50	0.395	1.99	0.917	> 0.2
MDA-MB-468 (breast, adherent)	0.914	> 10.2	0.978	> 10	0.665	0.18	0.987	> 16	0.886	> 20	0.586	1.09	–	–	0.979	> 5.12	0.539	3.97	0.835	39.8	0.184	0.00148
MES-SA (uterus, adherent)	0.992	> 10.2	0.976	> 10	0.567	0.0947	0.981	> 16	–	–	0.873	7.46	0.986	> 5	0.992	> 5.12	0.45	2.33	0.395	2.15	–	–
MKN28 (stomach, adherent)	0.98	> 10.2	0.935	> 10	0.413	0.0368	0.854	13.1	0.95	> 20	0.955	> 10.2	–	–	0.956	> 5.12	0.568	4.83	0.039	< 0.25	0.385	0.00597
NB69 (neuroblastoma, adherent)	0.99	> 10.2	0.656	1.6	0.344	0.025	0.989	> 16	0.888	18.1	0.714	2.37	–	–	0.987	> 5.12	0.121	0.236	0.305	1.22	0.186	0.00166
